# In article PMC9899276:
# Sequences of proteins named here, by UniProt entry; tags and fusion partners are left off. A change or cut given only in a name is not applied to a line headed by its entry.
# UniProt Q86WV6: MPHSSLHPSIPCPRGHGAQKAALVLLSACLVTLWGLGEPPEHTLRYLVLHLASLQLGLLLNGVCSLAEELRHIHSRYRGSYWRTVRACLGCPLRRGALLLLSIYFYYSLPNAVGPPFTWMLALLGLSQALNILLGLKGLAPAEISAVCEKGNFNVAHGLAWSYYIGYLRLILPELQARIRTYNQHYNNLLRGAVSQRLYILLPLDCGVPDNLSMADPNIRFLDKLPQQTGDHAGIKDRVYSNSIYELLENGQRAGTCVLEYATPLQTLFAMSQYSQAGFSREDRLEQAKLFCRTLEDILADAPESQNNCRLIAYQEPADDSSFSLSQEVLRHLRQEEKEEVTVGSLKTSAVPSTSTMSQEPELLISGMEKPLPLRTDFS
# UniProt O14964: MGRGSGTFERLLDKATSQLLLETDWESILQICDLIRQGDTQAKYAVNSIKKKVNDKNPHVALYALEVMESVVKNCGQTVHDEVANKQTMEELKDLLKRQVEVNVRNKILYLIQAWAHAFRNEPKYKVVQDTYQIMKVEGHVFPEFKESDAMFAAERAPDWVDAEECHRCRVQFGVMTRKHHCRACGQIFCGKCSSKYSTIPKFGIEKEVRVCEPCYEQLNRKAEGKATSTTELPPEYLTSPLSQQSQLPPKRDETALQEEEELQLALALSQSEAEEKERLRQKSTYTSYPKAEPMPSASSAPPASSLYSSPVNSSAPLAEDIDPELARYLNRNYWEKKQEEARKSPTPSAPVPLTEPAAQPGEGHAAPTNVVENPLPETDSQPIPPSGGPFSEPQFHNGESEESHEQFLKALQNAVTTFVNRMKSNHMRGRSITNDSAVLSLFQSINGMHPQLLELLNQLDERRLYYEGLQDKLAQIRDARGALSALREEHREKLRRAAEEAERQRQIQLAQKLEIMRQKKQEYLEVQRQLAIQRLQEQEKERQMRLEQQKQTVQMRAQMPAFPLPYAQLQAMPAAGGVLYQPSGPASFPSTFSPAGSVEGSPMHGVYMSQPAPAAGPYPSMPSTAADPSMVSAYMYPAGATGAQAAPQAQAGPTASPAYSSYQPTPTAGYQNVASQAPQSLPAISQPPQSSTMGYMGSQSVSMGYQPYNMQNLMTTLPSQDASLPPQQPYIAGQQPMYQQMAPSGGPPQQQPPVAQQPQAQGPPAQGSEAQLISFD
# UniProt Q8NEZ2: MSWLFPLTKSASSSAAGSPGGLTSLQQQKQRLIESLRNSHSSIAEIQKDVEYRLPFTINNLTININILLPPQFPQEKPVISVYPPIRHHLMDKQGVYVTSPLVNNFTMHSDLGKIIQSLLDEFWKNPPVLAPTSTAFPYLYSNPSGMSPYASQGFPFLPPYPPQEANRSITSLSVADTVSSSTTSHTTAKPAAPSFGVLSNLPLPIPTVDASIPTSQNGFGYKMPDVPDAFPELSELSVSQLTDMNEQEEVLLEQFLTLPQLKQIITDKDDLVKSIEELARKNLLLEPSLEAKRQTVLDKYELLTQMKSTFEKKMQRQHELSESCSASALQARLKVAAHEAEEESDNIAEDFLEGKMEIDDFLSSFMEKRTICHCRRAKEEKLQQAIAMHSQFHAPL
# No constants are given. Whether binding was seen depends on the method and setting. Binding seen in cells or lysates may run through a third protein. Some binding calls cover weakened binding; strength is not graded here.
# Legend:
# Assay in all cases: co-IP; 293T stably expressing STING-HA (WT, V155M or R284S), transfected with mScarlet-HGS or mScarlet-VPS37A, not stimulated; lysis in 20 mM Tris-HCl pH 7.5, 150 mM NaCl, 0.5% NP-40; anti-HA magnetic beads O/N at 4 °C; immunoblot
# [1] = target: STING R284S-HA (human) (UniProt Q86WV6)
# [2] = target: HA-tagged wild-type (WT) STING (human) (UniProt Q86WV6)
# [3] = target: STING V155M-HA (human) (UniProt Q86WV6)
binding [1],binding [3],Substance,binding [2]
binds,binds,mScarlet-HGS (from UniProt O14964 1-777),no binding (condition: cells not stimulated with cGAMP)
binds,binds,mScarlet-VPS37A (from UniProt Q8NEZ2 1-397),
